PMC4336329 (PLoS ONE, 2015)
The whole screen tested about 310,000 compounds, of which about 14,000 (4.5%) showed an effect of 50% or more. Effects have a minus sign here. Some of the results follow.

Target: human ether-à-go-go-related gene (hERG) potassium channel (human, UniProt Q12809)
Assay: primary screen, population patch clamp on CHO cells stably expressing hERG
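Also: peak tail current of the secondary pulse compared with the same well before compound.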

Chain of human ether-à-go-go-related gene (hERG) potassium channel (Q12809 whole entry, looked up): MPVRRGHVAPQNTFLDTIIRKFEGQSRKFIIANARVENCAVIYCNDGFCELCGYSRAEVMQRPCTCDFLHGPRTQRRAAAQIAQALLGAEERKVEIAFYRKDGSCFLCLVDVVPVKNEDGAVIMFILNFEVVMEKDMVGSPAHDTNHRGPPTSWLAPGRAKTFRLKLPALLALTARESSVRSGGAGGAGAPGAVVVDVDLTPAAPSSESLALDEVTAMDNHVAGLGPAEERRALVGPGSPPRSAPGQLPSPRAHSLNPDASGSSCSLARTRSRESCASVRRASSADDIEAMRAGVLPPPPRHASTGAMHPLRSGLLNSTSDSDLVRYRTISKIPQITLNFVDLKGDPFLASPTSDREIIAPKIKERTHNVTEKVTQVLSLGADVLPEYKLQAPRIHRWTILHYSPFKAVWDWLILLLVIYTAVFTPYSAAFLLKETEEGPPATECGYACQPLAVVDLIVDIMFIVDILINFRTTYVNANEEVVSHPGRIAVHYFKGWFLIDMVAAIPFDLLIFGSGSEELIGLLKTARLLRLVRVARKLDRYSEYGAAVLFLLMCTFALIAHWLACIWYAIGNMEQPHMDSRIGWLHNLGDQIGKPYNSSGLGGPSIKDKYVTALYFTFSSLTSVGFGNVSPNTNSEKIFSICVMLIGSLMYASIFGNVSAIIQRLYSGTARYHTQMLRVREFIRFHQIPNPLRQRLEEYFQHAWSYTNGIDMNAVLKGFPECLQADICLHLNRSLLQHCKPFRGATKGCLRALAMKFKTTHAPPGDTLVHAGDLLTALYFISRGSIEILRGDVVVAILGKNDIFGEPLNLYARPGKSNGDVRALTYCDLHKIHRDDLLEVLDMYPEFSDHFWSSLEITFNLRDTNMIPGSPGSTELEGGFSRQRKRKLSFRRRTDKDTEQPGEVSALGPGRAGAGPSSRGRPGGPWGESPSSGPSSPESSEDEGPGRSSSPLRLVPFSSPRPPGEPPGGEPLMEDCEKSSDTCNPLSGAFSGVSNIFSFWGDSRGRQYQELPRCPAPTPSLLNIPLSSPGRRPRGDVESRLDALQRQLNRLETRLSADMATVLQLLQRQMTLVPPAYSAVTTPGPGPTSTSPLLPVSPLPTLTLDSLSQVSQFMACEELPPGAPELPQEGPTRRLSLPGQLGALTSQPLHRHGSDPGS

Going from `O=C(CSc1ccc2nnc(-c3ccc(Cl)cc3)n2n1)N1CCCc2ccccc21` to `O=C(CSc1ccc(-c2ccc(F)cc2)nn1)NCC1CCCO1` (stereo not drawn), the “hERG current change (%, negative = inhibition) at 10uM” value falls from 1.71% to -8.07%.

Going from `O=C(NCCN1CCOCC1)c1cc(-c2cccc(Cl)c2)on1` to `Cc1cccc(CN2C(=O)c3ccccc3Sc3ccc(C(=O)NCCCN4CCOCC4)cc32)c1`, the “hERG current change (%, negative = inhibition) at 10uM” value falls from -4.73% to -9.29%.

Compared with `Cc1ccccc1C(=O)NC1CCCCCCC1`, `COc1cccc(-c2nc(CS(=O)CC(=O)NC3CCCC3)c(C)o2)c1` (stereo not drawn) is lower in “hERG current change (%, negative = inhibition) at 10uM” value: 9.85% for the first, 1.08% for the second.

First: CC1CCN(S(=O)(=O)c2ccc3c(c2)N(CC(=O)NCCCN2CCCC(C)C2)C(=O)CS3)CC1 (stereo not drawn)
Second: CC1CCN(S(=O)(=O)c2cccc(C(=O)Nc3ccccc3)c2)CC1
The “hERG current change (%, negative = inhibition) at 10uM” value of the first is lower: -20.6% for the first, -9.3% for the second.

Going from `Cn1nnnc1SCC(=O)c1c(N)n(C2CC2)c(=O)[nH]c1=O` to `COc1ccc(CCN2CC(C(=O)NCCN3CCNC3=O)CCC2=O)cc1` (stereo not drawn), the “hERG current change (%, negative = inhibition) at 10uM” value falls from 19.6% to 6.77%.

Going from `O=C(CSc1ncnc2c1cnn2CCO)Nc1cccc(C(F)(F)F)c1` to `Cc1cc(NC(=O)CSc2nccn2C)n(-c2ccccc2)n1`, the “hERG current change (%, negative = inhibition) at 10uM” value rises from -12% to 5.86%.

Going from `Cc1ccc(C)c(N2C(=O)CC(Cc3ccc(Br)cc3)C2=O)c1` (stereo not drawn) to `Cc1ccc(-n2c(C)cc(/C=C3/C(=O)NC(=O)N(C)C3=O)c2C)cc1`, the “hERG current change (%, negative = inhibition) at 10uM” value rises from 6.6% to 15.2%.

Compared with `Cc1cccc(-c2nnc(NC(=O)c3ccc(Cl)cc3)o2)c1`, `CCOc1cccc(C(=O)NC(=S)Nc2cccc(C)c2)c1` is higher in “hERG current change (%, negative = inhibition) at 10uM” value: 1.54% for the first, 6.87% for the second.

Going from `CCOc1ccc(/C(O)=C2/C(=O)C(=O)N(c3ncccn3)C2c2ccccc2)cc1` (stereo not drawn) to `COc1ccc(C2=NN3C(C2)c2ccccc2OC32C(=O)N(C)c3ccccc32)cc1` (stereo not drawn), the “hERG current change (%, negative = inhibition) at 10uM” value rises from -4.75% to -1.88%.

Going from `O=C(O)CC/C(=N/NC(=O)c1cccs1)c1ccccc1` to `O=C(N/N=C/c1c(O)ccc2ccccc12)Nc1ccccc1`, the “hERG current change (%, negative = inhibition) at 10uM” value rises from 6.16% to 16.3%.

First: CCc1ccc(NC(=O)C(NS(=O)(=O)c2cccc3nsnc23)c2ccccc2)cc1 (stereo not drawn)
Second: Cc1cccc(-c2nn(-c3ccccc3)cc2C(=O)Nc2cccc(S(=O)(=O)NC3=NCCC3)c2)c1
The “hERG current change (%, negative = inhibition) at 10uM” value of the first is lower: -28.6% for the first, 3.74% for the second.

First: O=C1NN(c2ccccc2)C(=O)/C1=C\c1cccn1-c1ccc(Cl)c([N+](=O)[O-])c1
Second: O=C1c2ccccc2C(=O)N1CCCON1C(=O)c2ccccc2C1=O
The “hERG current change (%, negative = inhibition) at 10uM” value of the first is higher: 4.64% for the first, -15.6% for the second.

First: O=S(=O)(c1ccc(Cl)cc1)c1cnc(-c2cccnc2)nc1-c1ccccc1
Second: O=C(Nc1ccccc1)C1CCCN1S(=O)(=O)c1ccc(Br)cc1 (stereo not drawn)
The “hERG current change (%, negative = inhibition) at 10uM” value of the first is lower: 0.222% for the first, 22.8% for the second.

First: O=C(Nc1nccs1)C1(c2ccc(Cl)cc2)CC1
Second: CC(=O)c1ccc(NC(=O)C2CCCN2S(=O)(=O)c2cccs2)cc1 (stereo not drawn)
The “hERG current change (%, negative = inhibition) at 10uM” value of the first is lower: -12.7% for the first, -1.36% for the second.

Going from `CN(C)S(=O)(=O)c1ccc(C(=O)NCC2(N3CCCCC3)CCCCC2)cc1` to `CC1CCCC(C)N1NC(=O)c1cccc(S(=O)(=O)N2CCc3ccccc32)c1` (stereo not drawn), the “hERG current change (%, negative = inhibition) at 10uM” value falls from -1.46% to -2.22%.

Compared with `CC(C)CC(=O)NC1(C(F)(F)F)C(=O)Nc2c1c(=O)n(C)c(=O)n2C` (stereo not drawn), `COc1ccc(C(=O)Nc2cc3c(cc2N2CCOCC2)n(C)c(=O)n3C)cc1OC` is higher in “hERG current change (%, negative = inhibition) at 10uM” value: 10.5% for the first, 19.1% for the second.

First: Cc1nc(NC(=O)c2ccc(F)cc2)nc2cc3c(cc12)OCO3
Second: Cc1nc(NCc2ccc3c(c2)OCO3)c2nnn(Cc3ccccc3)c2n1
The “hERG current change (%, negative = inhibition) at 10uM” value of the first is higher: 9.93% for the first, -13.9% for the second.

First: Cc1cc(C(=O)N2CCN(c3ccccn3)CC2)c(C)o1
Second: Cc1noc(C)c1S(=O)(=O)N1CCN(c2ccccc2)CC1
The “hERG current change (%, negative = inhibition) at 10uM” value of the first is lower: -7.39% for the first, -5.33% for the second.

Compared with `O=[N+]([O-])c1cc(S(=O)(=O)c2ccc([O-])c([N+](=O)[O-])c2)ccc1[O-].[Na+]`, `CNc1ccc(C(=O)OCC(=O)Nc2ccnn2C(C)C)cc1[N+](=O)[O-]` is lower in “hERG current change (%, negative = inhibition) at 10uM” value: 17.4% for the first, -1.37% for the second.

First: Cc1nc(-c2noc(-c3ccccc3Cl)n2)c(C(F)(F)F)o1
Second: CCCC(=O)NC(=S)Nc1ccccc1C(F)(F)F
The “hERG current change (%, negative = inhibition) at 10uM” value of the first is higher: 21.2% for the first, 13.2% for the second.

Going from `O=C(c1cccc([N+](=O)[O-])c1)N1CCCC(C(=O)N2CCc3ccccc3C2)C1` (stereo not drawn) to `N/C(=N\OC(=O)C1CCCCC1)c1cccc([N+](=O)[O-])c1`, the “hERG current change (%, negative = inhibition) at 10uM” value rises from -31% to 19.1%.

First: CC(C)C(NC(=O)CCNC(=O)c1ccccc1Cl)c1nc2ccccc2[nH]1 (stereo not drawn)
Second: COc1ccccc1N(CC(=O)NCCc1ccccc1)S(C)(=O)=O
The “hERG current change (%, negative = inhibition) at 10uM” value of the first is lower: -9.36% for the first, 21.2% for the second.

Compared with `O=C(CSc1ccc2ccccc2c1)Nn1cnnc1`, `O=C(N/N=C/c1cc2ccccc2nc1Cl)c1ccncc1` is lower in “hERG current change (%, negative = inhibition) at 10uM” value: 16.7% for the first, 1.94% for the second.

Compared with `O=C1NC(=O)C(=Cc2ccc3c(c2)OCO3)C(=O)N1`, `CNC(=S)NNC(=O)c1ccc2c(c1)OCO2` is lower in “hERG current change (%, negative = inhibition) at 10uM” value: 15.3% for the first, 10.1% for the second.

Compared with `C/C(=N\NC(=O)c1ccncc1)c1ccc(N2CCOCC2)cc1`, `CCOCCCNCC(=O)Nc1ccccc1N1CCOCC1.O=C(O)C(=O)O` is higher in “hERG current change (%, negative = inhibition) at 10uM” value: -4.49% for the first, -3.71% for the second.

Compared with `CCC[N+](CC#CCO)(CC#Cc1ccccc1)CCC.[Br-]`, `CC(C)(C)C(=O)N(Cc1ccccc1)c1ccccn1` is higher in “hERG current change (%, negative = inhibition) at 10uM” value: -7.98% for the first, 6.01% for the second.

Going from `O=C(NCC1CCOCC1)c1cc(COc2ccc(F)cc2F)on1` to `COC(=O)C1=C(c2ccc(F)cc2F)C[C@@H]2CC[C@H]1N2C(=O)N1CCCC1`, the “hERG current change (%, negative = inhibition) at 10uM” value rises from -11.9% to 12.5%.

Compared with `O=C(NCc1ccccc1)N1CCC(n2cnc3cc(F)ccc32)CC1`, `COc1ccccc1NC(=O)N1CCn2c(nc3ccccc32)C1` is higher in “hERG current change (%, negative = inhibition) at 10uM” value: -64.3% for the first, -17.4% for the second.

Going from `O=C(COC(=O)c1ccccc1F)Nc1cc(S(=O)(=O)N2CCOCC2)ccc1N1CCCC1` to `COc1ccccc1N1CCN(C(=O)CN(C)S(=O)(=O)c2cc(C)ccc2OC)CC1`, the “hERG current change (%, negative = inhibition) at 10uM” value rises from -13.5% to -7.23%.

First: N#C/C(C(=O)NCc1ccccc1)=C1/N=C(NC(=O)c2ccco2)c2ccccc21
Second: Cc1ccc(/C=N/Nc2cc(C)nc(NCc3ccccc3)n2)cc1
The “hERG current change (%, negative = inhibition) at 10uM” value of the first is higher: 10.3% for the first, -6.03% for the second.

Going from `CS(=O)(=O)N1CCC(C(=O)NCc2ccc(F)cc2Cl)CC1` to `NC(=O)C1CCN(c2ccc([N+](=O)[O-])cc2Cl)CC1`, the “hERG current change (%, negative = inhibition) at 10uM” value rises from -3.78% to 14.8%.

Compared with `COc1cc(C(=O)Nc2ccc3c(c2)C(=O)c2ccccc2C3=O)cc(OC)c1OC`, `CC(=O)c1ccc(OCCCC(=O)Nc2ccc(C)c(S(=O)(=O)N(C)C)c2)cc1` is lower in “hERG current change (%, negative = inhibition) at 10uM” value: -4.84% for the first, -6.59% for the second.

Going from `COc1ccc(C2NC(=O)NC(C)=C2C(=O)OC2CCC(C)CC2)cc1` (stereo not drawn) to `COC(=O)c1ccc(NC(=O)CSc2nc3ncccc3[nH]2)cc1`, the “hERG current change (%, negative = inhibition) at 10uM” value falls from 11.9% to 2.16%.

Compared with `O=C(c1ccco1)N1N=C2CCCCCC2C1(O)C(F)(F)F` (stereo not drawn), `O=C(NCc1cccs1)c1noc2c1CCCCC2` is lower in “hERG current change (%, negative = inhibition) at 10uM” value: 5.03% for the first, -5.56% for the second.

Going from `Cc1ccc(Nc2nnc(SCC(=O)Nc3cccc(S(=O)(=O)NC4=NCCCCC4)c3)s2)c(C)c1` to `Cc1ccc(NC(=O)CSc2nnc(Cn3c(=O)sc4ccccc43)n2C)cc1Cl`, the “hERG current change (%, negative = inhibition) at 10uM” value rises from -8.71% to -2.61%.

Going from `CCOc1ccc2[nH]c3c(N4CCN(C(=O)c5ccco5)CC4)ncnc3c2c1` to `Cn1c(=O)cc(OCCCC(=O)N2CCN(c3ccccc3)CC2)c2ccccc21`, the “hERG current change (%, negative = inhibition) at 10uM” value rises from -58.4% to -47.3%.

Compared with `CC1Cc2cc(C(=O)O)ccc2O1` (stereo not drawn), `N#C/C(=C\c1ccc(O)c(O)c1)C(=O)N1CCCC1` is higher in “hERG current change (%, negative = inhibition) at 10uM” value: -8.49% for the first, 19.7% for the second.

Going from `CCOC(=O)CSc1nc(C)c(Oc2ccc(Cl)cc2Cl)c(=O)[nH]1` to `CCOC(=O)c1cc(NC(=O)OC)c(C)nc1C`, the “hERG current change (%, negative = inhibition) at 10uM” value falls from 9.96% to 1.06%.

Compared with `Cc1ccc(NC(=S)N(CCCN2CCOCC2)Cc2cccs2)c(C)c1`, `O=C(Nc1ccc(N2C(=O)C3C4C=CC(C4)C3C2=O)cc1Cl)c1cccs1` (stereo not drawn) is higher in “hERG current change (%, negative = inhibition) at 10uM” value: -11.7% for the first, 11.5% for the second.

Compared with `CC1CC(C)CN(S(=O)(=O)c2cc3c4c(c2)C(C)C(=O)N4CCC3)C1` (stereo not drawn), `Cn1nccc1C(=O)N1CCCC(N2CCN(Cc3ccc4c(c3)OCO4)CC2)C1` (stereo not drawn) is higher in “hERG current change (%, negative = inhibition) at 10uM” value: 9.93% for the first, 15.7% for the second.

Compared with `C[C@]12CCC[C@H](O1)[C@H]([C@@H](O)c1ccccc1)O2`, `c1ccc(N2CCN(Cc3nnnn3C3CCCCC3)CC2)cc1` is lower in “hERG current change (%, negative = inhibition) at 10uM” value: 19.3% for the first, 15.9% for the second.

Going from `N#Cc1cnc(NCc2ccc(Cl)cc2Cl)nc1` to `O=C1N(Cc2ccc(F)cc2Cl)c2ccccc2C12OCCCO2`, the “hERG current change (%, negative = inhibition) at 10uM” value falls from 2.88% to -5.22%.

Compared with `c1ccc(N2CCN(c3nnnn3-c3ccccc3)CC2)cc1`, `O=C(Nc1ccc(-c2n[nH]c(=S)o2)cc1)c1ccccc1Br` is higher in “hERG current change (%, negative = inhibition) at 10uM” value: -11.2% for the first, 20.6% for the second.

`CC(C)(C)OC(=O)N1CC(O)CC1C(=O)OCC(=O)c1ccccc1` (stereo not drawn) was tested, and the “hERG current change (%, negative = inhibition) at 10uM” value was 5.86%.
